Experimental data reported in PubChem BioAssay AID1508624 (National Center for Advancing Translational Sciences (NCATS), 2021).
Hit rate of the full screen: of about 48,000 compounds, about 120 (0.25%) were called active. Roughly 4% stayed inconclusive and do not appear here. The call rests on the fitted dose curve; in most records, active means well fitted activation curve with a large enough effect; inconclusive means small, poorly fitted or top-dose-only effect, or another doubt; inactive means no such curve, though single readings can be large or run the other way. This is one part of the list.

Test: Primary qHTS for Identification of Small Molecule Activators of Huntingtin-Antisense Promoter Activity; further: nearly all actives have a fitted effect of over 55% in size
Settings: HEK293 HTT-AS promoter firefly luciferase reporter, 24 h; series mostly up to 57.5 µM; activity change, positive = activation: at the top concentration
How it was run: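 Firefly luciferase readout (Dual-Glo, 10 min RT) after 24 h, 37 °C compound exposure (final up to 57.5 uM) of HEK293 reporter cells cultured 24 h beforehand; PTC124 at 50 uM final as control inhibitor; activity scaled vehicle 0%, zero RLU -100%.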

Activity change, positive = activation, inactive:
O=C(COCc1cc(-c2ccco2)on1)Nc1cccc(O)c1 5.24%
Cn1c(=O)c(=O)n(C)c2cc(S(=O)(=O)CCC(=O)Nc3cccc(C(F)(F)F)c3)ccc21 -4.95%
Cc1ccc(-c2nc3c(cnn3-c3ccccc3)c(=O)n2-c2cccc(Cl)c2)cc1 5.27% [at 11.5 µM, percent change from vehicle, -100% = no light]
CN(C)S(=O)(=O)c1ccc2c(c1)N(CC(=O)N1CCN(c3cccc(Cl)c3)CC1)CCS2 0.459%
COc1cc(OC)c(N(C)C(=O)C2CCCN(c3ncnc4c3nc3n4CCCCC3)C2)cc1Cl (stereo unspecified) -27.1%
COc1cc(NC(=O)Nc2nnc(N3CCCCCC3)s2)cc(OC)c1 13.1%
CC1CCCN(Cc2c(O)ccc3c(=O)c(Oc4ccc(C(C)(C)C)cc4)c(C(F)(F)F)oc23)C1 (stereo unspecified) -1.36%
CCOc1ccccc1CNC(=O)c1cnc2c(-c3ccc(OCC)c(OCC)c3)c(C)nn2c1C -5.6%
Nc1cccc2c(N)cccc12 -4.3% [at 116 µM, percent change from vehicle, -100% = no light]
COc1ccc(NC(=O)C2CCN(c3nc4ccccc4nc3C(F)(F)F)CC2)cc1 9.49%
COc1ccc(-c2cn3nc(N4CCC(C(=O)Nc5ccc(Cl)cc5C)CC4)sc3n2)cc1 -8.57%
COc1ccc(-n2nc(C(=O)NCCc3ccc(OC)c(OC)c3)c3c4ccccc4n(C)c3c2=O)cc1Cl -7.04%
Cc1oc(-c2ccc(C(=O)NCCc3ccc(Cl)cc3)cc2)nc1CSc1ccccc1 -9.57%
O=C(Cn1cc(SCc2ccccc2)c2ccccc21)N1CCCCCC1 12.9%
Cc1ccc(-c2nc(SCC(=O)N3CCc4ccccc43)c3c(=O)n(C)c(=O)n(C)c3n2)cc1 -6.69%
Cc1ccc(N2CCN(c3c(CN4CCCC4)c(=O)oc4ccccc34)CC2)c(C)c1 -11.1%
COCCCNC(=O)c1c(NC(=O)c2cc(=O)c3ccccc3o2)sc2c1CCCC2 0%
Cc1ccc(S(=O)(=O)n2nc(C)c(S(=O)(=O)N3CCC(C)CC3)c2C)cc1 -4.84%
O=C(NCc1ccccc1)c1ccc2c(c1)N(Cc1cccc(Cl)c1)C(=O)c1ccccc1S2(=O)=O -9.49%
Cc1ccc2nc(-c3ccc(Cl)c(NC(=O)c4cccc([N+](=O)[O-])c4C)c3)oc2c1 27.7%
Cc1ccccc1CN1C(=O)c2ccccc2Sc2ccc(C(=O)OCc3ccco3)cc21 -23%
CCOC(=O)C1CCC(CN(Cc2c(Cl)cccc2Cl)S(=O)(=O)c2ccc(Cl)cc2)CC1 (stereo unspecified) -28.5%
CCn1ccc2cc(S(=O)(=O)N3CCC(C(=O)NCc4ccc(OC)cc4)CC3)ccc21 -23.1%
COc1ccccc1CNC(=O)C1CCN(S(=O)(=O)c2c(C)noc2/C=C/c2cccs2)CC1 -25.1%
Cc1cc(=O)n(Cc2ccc(F)cc2Cl)c2c1c(C)nn2-c1ccccc1 -7.52%
CCn1c(=O)c2sccc2n2c(CCCC(=O)N3CCN(c4cc(C)ccc4C)CC3)nnc12 -6.36%
Cc1ccn2c(=O)c(C(=O)NCCc3ccc(S(N)(=O)=O)cc3)c(O)nc2c1 -18.1%
COc1ccc(N2C(=O)CSC23C(=O)N(CC(=O)NCc2ccccc2)c2ccccc23)cc1 (stereo unspecified) -2.29%
Cc1ccc(NCc2ccccc2-c2nnc(-c3ccccc3Cl)o2)cc1Cl 7.07%
COc1ccc(S(=O)(=O)NC2(C(F)(F)F)NC(=O)N(CCc3ccc(OC)c(OC)c3)C2=O)cc1 (stereo unspecified) -3.97%
CS(=O)(=O)NCCc1csc2nc(-c3ccccc3)nn12 -4.22%
COc1cc(C2C(C(=O)OC(C)C)=C(C)N=C3SCCC(=O)N32)ccc1OCc1ccccc1 (stereo unspecified) -32%
COc1ccc(OC)c(NC(=O)c2c(NCc3ccc(C)o3)sc3c2CCCCC3)c1 -0.386%
COc1cccc(NC(=O)N(Cc2cn(C)c3ccccc23)C2CCCCC2)c1 -26.8%
COc1ccc(NC(=O)NCc2cccn2Cc2ccc(F)cc2)cc1OC -16.7%
Cc1cc(Nc2ccccc2Cl)n2nc(-c3ccco3)nc2n1 -8.95%
Cc1cc(C)cc(NC(=O)CN2C(=O)CSc3ccc(S(=O)(=O)N4CCCC4)cc32)c1 -21.2%
CCOc1ccc(NC(=O)c2c(NC(=O)c3cccc(C)c3)sc3c2CCC3)cc1 -1.49%
CCOC(=O)c1c(NC(=O)CSc2cn(CCNC(=O)c3ccccc3OC)c3ccccc23)sc2c1CCCC2 -28.5%
O=C(NCC1CCN(Cc2cccc(F)c2)CC1)c1cc2ccc3cccnc3c2[nH]1 -2.26%
CC1=C(c2ccc(C(C)C)cc2)S(=O)(=O)N=C1N1CCC(C(=O)NCc2ccco2)CC1 -13.4%
COc1ccccc1N1CCN(S(=O)(=O)CCNC(=O)COc2ccc(F)cc2)CC1 -16.4%
Cc1ccc(CNC(=O)Cn2c(=O)cc(-c3ccccc3)c3c(C)nn(C)c32)cc1 -7.32%
CCc1ccc(NC(=O)CC2C(=O)N(c3ccc(OC)cc3)C(=O)N2Cc2ccc(OC)cc2)cc1 (stereo unspecified) -17%
Cc1c(C(=O)NCCc2ccccc2)cccc1-n1cnc2cccnc21 0.103%
C=C(c1ccc(C(=O)O)cc1)c1cc2c(cc1C)C(C)(C)CCC2(C)C
COc1ccc(CCNc2ncnc3c2c(-c2ccccc2)cn3-c2cccc(Cl)c2)cc1OC -45%
COCCNC(=O)CN1C(=O)COc2ccc(S(=O)(=O)N3CCOCC3)cc21 -0.243%
CCc1ccccc1N(C)C(=O)Nc1cn(CC(C)C)c(=O)c2ccccc12 -5.51%
CCC1CCCCN1S(=O)(=O)c1ccc2c(c1)CCCN2C(C)=O (stereo unspecified) -24%
C=Cc1ccc(CSc2nc(-c3ccccc3C)nc3c2Cc2c(CO)cnc(C)c2O3)cc1 -12.9%
CCn1cc(C(=O)OCC(=O)Nc2cccc(Cl)c2C)c(=O)c2ccc(C)nc21 1.1%
CCOc1ccc(CNC(=O)CCn2c(=O)c3cccn3c3cccnc32)cc1 -15.5%
O=C(CSc1nc(=O)n(Cc2ccco2)c2c1CCC2)NCc1ccccc1Cl -8.6%
N#Cc1ccc(NC(=O)COCc2cc(-c3ccc4c(c3)OCO4)on2)cc1 5.55%
COC(=O)c1scc(-c2ccc(C)cc2)c1S(=O)(=O)Nc1ccc(OC(F)(F)F)cc1 -13.4%
Cc1cc(N2CCN(C)CC2)nc2ccc(NC(=O)Nc3ccc(Cl)cc3)cc12 3.82%
CCOc1ccc(N2CC(NC(=O)c3ccc(S(=O)(=O)N4CCOCC4)cc3)CC2=O)cc1 (stereo unspecified) -23.2%
Cc1nc2ccn(Cc3cccnc3)c(=O)c2cc1C(=O)NCc1ccc(Cl)cc1 -20.5%
COc1ccccc1CNC(=O)CCCn1nc(C)c2c(C)n(-c3ccc(C)cc3)nc2c1=O -21.9%
COC(=O)c1c(SC)nc2ccccc2c1OCc1ccc(C)cc1C -25.8%
Cc1ccc(-c2cc(C(F)(F)F)n3nc(C(=O)Nc4sc5c(c4C#N)CCC(C)C5)cc3n2)cc1 (stereo unspecified) 4.32% [at 11.5 µM, percent change from vehicle, -100% = no light]
Cc1ccc2onc(CC(=O)Nc3cc(F)ccc3F)c2c1 16.6%
O=C(CSc1nnc2scc(-c3ccc(Cl)cc3)n12)Nc1ccccc1F -18.1%
CC(CNC(=O)c1ccc(CSc2nc3ccncc3n2Cc2cccc(F)c2)cc1)c1ccccc1 (stereo unspecified) -26.6%
CCOc1cccc(CC(=O)N2CCc3c([nH]c4ccccc34)C2c2ccc(C)cc2)c1OCC (stereo unspecified) -23.8%
Cc1ccc(C)c(-c2nn(CC(=O)Nc3cc(F)ccc3F)c(=O)c3c2CCCC3)c1 -39.4%
COc1ccc(C(=O)Nc2ccc3c(c2)N(C2CCCC2)C(=O)c2ccccc2S3)cc1OC -37.2%
COc1cc(C(=O)Nc2ccc(Cl)c(-c3nc4ncccc4o3)c2)cc(OC)c1OC -24%
O=C(NCCc1ccccc1)C(=O)NCC(c1cccnc1)N1CCN(c2ccccc2)CC1 (stereo unspecified) -40.5%
O=C(Cn1cc(S(=O)(=O)N2CCN(c3ccccc3F)CC2)c2ccccc2c1=O)Nc1cccc(C(F)(F)F)c1 -27.6%
Cc1ccccc1CNC(=O)CCCn1c(=O)c2cccn2c2ccccc21 -9.79%
Cc1cccc2c1-c1sc(C(=O)N3CCN(c4ccc(F)cc4)CC3)cc1CO2 16.2%
CC(=O)c1ccc(N2CCN(S(=O)(=O)c3cc(-c4onc(C)c4C)ccc3C)CC2)cc1 -28.9%
CCc1ccccc1-n1c(SCC(=O)Nc2ccc(C)cc2)nc2n[nH]c(C)c2c1=N -47.9%
CC(C)(C)NCC(O)c1cc(O)cc(O)c1 (stereo unspecified) -13.8%
O=C(c1ccc2c(c1)N(Cc1ccccc1Cl)C(=O)c1ccccc1S2)N1CCCC1 -30.6%
CCc1cccc(NC(=O)Cn2c(-c3ccc(F)cc3)cc(C(C)=O)c2C)c1 -28.8%
Cc1ccccc1CNC(=O)CN1CCSc2ccccc21 7.07%
Nc1nc2nc(-c3ccccc3)cc(=O)n2[nH]1 -7.61%
COc1ccc(NC(=O)CN2CCCN(Cc3ccccc3)S2(=O)=O)cc1 -18.6%
Cc1ccc(NC(=O)C2CCN(S(=O)(=O)c3ccc4c(c3)CCCC(=O)N4)CC2)c(Br)c1 -19.6%
Cc1cccc(NS(=O)(=O)c2ccc3c(c2)n(C)c(=O)n3C)c1C -22.9%
Fc1ccc(CNc2nc(-c3ccc(Cl)cc3)cc(C(F)(F)F)n2)cc1 -27.3%
CCCCOC(=O)c1ccc(NC(=O)c2ccc3c(c2)CCCN3S(C)(=O)=O)cc1 -29.4%
O=C(CSc1nc2ccccc2nc1Cc1ccc(Cl)cc1)N1CCCCC1 -34.4%
Cc1cc(=O)n2nc(N3CCC(C(=O)NCCCOC(C)C)CC3)sc2n1 -2.12%
O=C(CSc1nnc(CNC(=O)c2ccccc2)n1-c1ccc(F)cc1)Nc1ccccc1F -17%
NS(=O)(=O)c1cc2c(cc1Cl)NC(CC1CCCC1)NS2(=O)=O (stereo unspecified) -12.9%
O=C(CC1NCCNC1=O)Nc1ccc(F)c(Cl)c1 (stereo unspecified) 11.2% [at 11.5 µM, percent change from vehicle, -100% = no light]
Cc1nn(-c2ccc(F)cc2)c(-n2cccc2)c1C(=O)N1CCCCC1C (stereo unspecified) -9.79%
